From article PMC4336329 (PLoS ONE, 2015)
Among all 310,000 compounds or so, about 14,000 (4.5%) showed an effect of 50% or more. Effects have a minus sign here. This is one part of the list.

What follows are compounds tested against human ether-à-go-go-related gene (hERG) potassium channel (human, UniProt Q12809) (assay: primary screen, population patch clamp on CHO cells stably expressing hERG).
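Further: peak tail current of the secondary pulse compared with the same well before compound.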

human ether-à-go-go-related gene (hERG) potassium channel, sequence (Q12809 whole entry, looked up): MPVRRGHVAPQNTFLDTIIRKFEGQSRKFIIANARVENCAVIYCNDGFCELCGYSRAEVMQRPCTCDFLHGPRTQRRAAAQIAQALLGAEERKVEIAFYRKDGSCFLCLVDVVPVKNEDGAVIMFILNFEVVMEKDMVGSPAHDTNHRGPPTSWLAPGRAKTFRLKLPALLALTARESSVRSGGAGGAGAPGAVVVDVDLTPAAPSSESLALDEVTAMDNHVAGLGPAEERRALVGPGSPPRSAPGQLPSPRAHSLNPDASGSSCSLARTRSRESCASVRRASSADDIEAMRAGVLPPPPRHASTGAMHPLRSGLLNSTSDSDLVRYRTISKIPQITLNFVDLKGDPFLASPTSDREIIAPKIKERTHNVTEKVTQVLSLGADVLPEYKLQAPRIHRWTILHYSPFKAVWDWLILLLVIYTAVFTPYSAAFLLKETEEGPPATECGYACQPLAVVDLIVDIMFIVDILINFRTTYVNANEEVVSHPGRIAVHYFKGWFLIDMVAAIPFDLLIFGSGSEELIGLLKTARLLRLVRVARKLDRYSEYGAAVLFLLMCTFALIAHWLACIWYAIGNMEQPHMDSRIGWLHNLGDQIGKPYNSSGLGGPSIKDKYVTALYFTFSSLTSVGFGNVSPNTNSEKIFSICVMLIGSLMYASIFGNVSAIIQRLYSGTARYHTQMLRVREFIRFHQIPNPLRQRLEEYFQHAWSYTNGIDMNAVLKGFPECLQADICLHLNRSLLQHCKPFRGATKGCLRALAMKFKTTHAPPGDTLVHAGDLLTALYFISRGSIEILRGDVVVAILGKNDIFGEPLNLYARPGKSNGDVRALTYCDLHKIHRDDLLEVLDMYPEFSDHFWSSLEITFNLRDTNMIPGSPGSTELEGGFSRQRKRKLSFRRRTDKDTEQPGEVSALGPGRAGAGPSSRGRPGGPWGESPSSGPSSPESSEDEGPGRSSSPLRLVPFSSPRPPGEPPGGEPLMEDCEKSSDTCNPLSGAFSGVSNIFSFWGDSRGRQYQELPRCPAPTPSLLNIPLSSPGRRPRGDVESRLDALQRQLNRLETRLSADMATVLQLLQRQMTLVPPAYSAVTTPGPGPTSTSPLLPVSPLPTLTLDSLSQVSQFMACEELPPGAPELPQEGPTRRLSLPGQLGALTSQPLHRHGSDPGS

SMILES	hERG current change (%, negative = inhibition) at 10uM [%]
O=c1cc(CN2CCN(c3ccc(O)cc3)CC2)nc2scc(-c3ccccc3)n12	5.58
CCOc1nc(OCC)c2cnn(C)c2n1	15.8
CCCCNC(=S)Nc1ccc(-c2nc3ccc(C)cc3s2)cc1	8.59
CCOc1cc2c(cc1OC)C(c1cccc([N+](=O)[O-])c1)NCC2 (stereo not drawn)	-19.8
Cc1ccc(-n2c(C)cc(/C=N/NC(=O)CN(c3ccc(C)cc3C)S(C)(=O)=O)c2C)cc1	6.39
Fc1cccc(CNC2CCN(CCc3ccccc3)CC2)c1	-42.8
CCOc1c(Cl)cc(CNCC(C)C)cc1OC.Cl	-6.91
CN(C)c1ccc(C(=S)N2CCCCC2)cc1	8.24
CCN(CC)C(=O)c1ccc(NS(=O)(=O)c2ccccc2)cc1	7.4
Cc1ccc(S(=O)(=O)NC(CC(=O)O)c2cccs2)cc1 (stereo not drawn)	14.8
COc1ccc(C(=O)NC(=S)N2CC(C)OC(C)C2)cc1 (stereo not drawn)	6
COC(=O)C1CCN(C(=O)COC(=O)Cn2cnnn2)CC1	23.3
Cc1ccc(/C=N\NC(=O)Cc2cccn2C)o1	23.7
CN(C)/C=N/c1cc(=O)n(C)c(=O)n1CC1CC1	12
O=C(CSc1ncn[nH]1)c1cccc([N+](=O)[O-])c1	14.3
CCOC(=O)N1CCN(CC(=O)Nc2sccc2C#N)CC1	-24.9
O=C(Nc1nccs1)C1C2/C=C\CCCCC21 (stereo not drawn)	6.31
O=C(CN1CCCCCC1)N1c2ccccc2Sc2ccccc21	-19.2
CC(C)N(Cc1ccccc1)C(=O)COC(=O)c1ccc(O)cc1	0.537
Cn1c(N)c(C(=O)Nc2ccc3ccccc3c2)sc1=S	1.24
C[C@@]1([C@@H](NC(=O)c2cccs2)c2ccc(-c3ccccc3)cc2)C[C@H]1C1CCCCC1	13.5
O=C(NC1CCCCC1)C(=O)N(Cc1cccnc1)C(C(=O)NCc1ccco1)c1ccccc1 (stereo not drawn)	6.88
N#Cc1cccc(Nc2c3c(nc4ccccc24)CCC3)c1	-72.2

SMILES	hERG current change (%, negative = inhibition) at 10uM [%]
CC(C)NC(=O)CN(c1cccc([N+](=O)[O-])c1)S(=O)(=O)c1ccccc1	7.99
CCOc1ccc(S(=O)(=O)N2CCN=C2Cc2ccccc2)cc1C	-9.28
CCN(CC(=O)NCc1ccc(Cl)cc1)C(=O)c1c(C)noc1C	-7.88
CCCCNC(=O)c1onc(CSc2ccccn2)c1C(=O)NCCCC	-47.8
COc1cccc(-c2cc(-c3cccnc3)nc(N)c2C#N)c1	-5.85
Cc1cc(C)n2nc(SCC(=O)c3cc(C)n(-c4cc(C)on4)c3C)nc2n1	-67.5
CC(=O)Nc1c(C(N)=O)oc2ccc(Cl)cc12	6.54
O=C(CN(C(=O)CSc1nc2ccccc2o1)c1ccccc1)NC1CCCCC1	5.84
C/C=C/C(=O)OCC(=O)Nc1nc2ccc(C)cc2s1	10.6
CC1(C)CC(=O)C(N=Nc2cccnc2)=C(O)C1	18.9
CC1CCC(C(C)C)C(OC(=O)Cn2c(-c3ccc(F)cc3)[n+](C)c3ccccc32)C1.[Cl-] (stereo not drawn)	-76.3
O=c1[nH]c(=O)n(Cc2ccccc2)c(O)c1C=NCCCn1ccnc1	1.23
C/C(=N\NC(=O)c1cccnc1)c1ccc(-n2ccnc2)cc1	-25.4
CS(=O)(=O)N(CC(=O)N1CCc2ccccc2C1)c1cccc([N+](=O)[O-])c1	-37.3
COC(=O)C1=CN(Cc2cccs2)C=C(C(=O)OC)C1c1cccc(Cl)c1	17.8
Oc1ccccc1N1CCN(c2nc(-c3cccs3)nc3ccccc23)CC1	5.52
Cc1cc2ncc(C(N)=O)cn2n1	10.8
N#Cc1ccccc1CSc1nc(O)cc(=O)[nH]1	11.7
COc1ccc(-c2nc(CS(=O)(=O)CC(=O)NC3CCCCC3C)c(C)o2)cc1 (stereo not drawn)	-15
CSc1nsc(SCC(=O)Nc2cccc(C(=O)O)c2)n1	-0.81
CN(C(=O)C(Cl)Cl)c1ccc(OC(=O)c2ccco2)cc1	10.1
COc1ccc(/C=N/NC(=O)c2cc3cc(OC)c(OC)cc3[nH]2)cc1	-20.7
Cc1ccc(NC(=O)Nc2ccon2)cc1Cl	16.8

SMILES	hERG current change (%, negative = inhibition) at 10uM [%]
Oc1c(Br)cc(/C=N/n2c(-c3ccccc3)n[nH]c2=S)c(O)c1Br	10.4
CC(NC(=O)c1cccc(Cn2cc([N+](=O)[O-])cn2)c1)c1ccc(C(C)(C)C)cc1 (stereo not drawn)	-0.951
CCOC(=O)c1c(CC(C)C)csc1NC=O	7.52
CCCCCCCNC(=O)CC(NS(=O)(=O)c1ccc(NC(C)=O)cc1)C(C)C (stereo not drawn)	3.19
Cc1ccc(C)c(C(=O)COC(=O)c2cc([N+](=O)[O-])ccc2N2CCOCC2)c1	-22.5
CCC(C)NC(=O)/C=C1\Sc2ccccc2NC1=O (stereo not drawn)	-1.99
O=C(N/N=C\c1cccc(OC(=O)c2ccco2)c1)c1ccc2c(c1)OCO2	-8.37
Cn1c(=O)n(CC(=O)[O-])c(=O)c2c1nc1n2CCS1	16.9
Cc1cccc(NC(=O)C2CCCN(C(=O)Nc3ccc(F)cc3)C2)c1 (stereo not drawn)	-8.63
Cc1cc(-c2ccccc2)n(-c2ccc(C(=O)NC(C)C)cc2)n1	20.7
CCOC(=O)c1cnc2ccc(OCC)cc2c1N1CCN(c2ccccc2OC)CC1	-5.78
CCC(N1CCOC1=O)S(=O)(=O)c1ccc(C)cc1 (stereo not drawn)	20.9
COc1ccc(NC(=S)Nc2ccc3nsnc3c2)cc1	9.35
O=C(Nc1cccnc1)c1cc(Br)c(Br)s1	1.91
CCCCCOc1ccc2oc(=O)c3c(c2c1)CCCN3C(=O)CN1CCCC(C(=O)OCC)C1 (stereo not drawn)	-0.3
CCOc1cc(C(C(=O)NCC2CCCO2)N(C(=O)Cn2nnc3ccccc32)c2ccc(OC)c(OC)c2)ccc1O (stereo not drawn)	10.5
COC(=O)[C@H](Cc1ccccc1)NC(=O)N1CCN(c2ccc(F)cc2)CC1	-12
CCOC(=O)N1CCC(N2CCN(CCC(C)C)C(CCO)C2)CC1 (stereo not drawn)	-13.4
Cl.OC(c1cccc(Cl)c1)c1nccc2ccccc12 (stereo not drawn)	11.5
Cc1ccc(CC2SC(N=C(N)N)=NC2=O)cc1 (stereo not drawn)	17.4
O=S(=O)(NCCCc1ccccc1)c1cccc2nsnc12	-25.9
CCc1ccc(-c2nc(CSCC(=O)N3CCN(c4ccccn4)CC3)c(C)o2)cc1	-50.7
CCn1c(SCC(N)=O)nnc1-c1cc2c(C)nn(-c3ccccc3)c2s1	-22.8

SMILES	hERG current change (%, negative = inhibition) at 10uM [%]
Cn1cnnc1SCC(=O)Nc1ccc(Oc2ccccc2)cc1	-15.7
CCN(CC(=O)Nc1c(F)cccc1F)C(=O)Cn1[nH]c(=O)c2ccccc2c1=O	-8.52
CCCCN(C(=O)CSc1nnc2ccccn12)c1c(N)n(Cc2ccccc2)c(=O)[nH]c1=O	15.7
Cc1cc(=O)oc2cc(OCC(=O)Nc3nccs3)ccc12	12.1
O=C(O)CN1CCN(Cc2ccccc2)C1=O	7.61
Cc1ccc(SCc2c(C(=O)N/N=C/c3cccnc3)nnn2-c2nonc2N)cc1	11.2
CC(C)(C)c1ccc(C(=O)Nc2ccc(O)c3c(=O)cc(-c4cccc(Cl)c4)oc23)cc1	17.7
CC1CCN(C(=O)C2CCCN(S(=O)(=O)c3ccc4c(c3)CC(C)N4C(=O)C3CC3)C2)CC1 (stereo not drawn)	-0.127
COc1ccc(OC)c(S(=O)(=O)N/N=C\c2cn(CC(N)=O)c3ccccc23)c1	22.3
Cc1nn(S(=O)(=O)c2ccc(Cl)cc2)c(C)c1S(=O)(=O)N1CCOCC1	20.9
COc1ccc(C(=O)n2nnc3ccccc32)cc1OC	13.3
CN(C)CCCNc1oc(-c2ccc(Cl)cc2)nc1C#N	-37.6
O=C(Nc1ccncc1)C1CCN(S(=O)(=O)c2cccc(C(F)(F)F)c2)CC1	-42.8
COc1ccc(/C=c2\sc3nc(-c4ccccc4OC)nn3c2=O)c(OC)c1	9.67
Cc1ccc(C)c(S(=O)(=O)N2CCN(CC(=O)NC(C)c3ccccc3)CC2)c1 (stereo not drawn)	-2.33
CCCN(C(=O)C(NC(=O)c1ccccc1)C(C)C)c1c(N)n(Cc2ccccc2)c(=O)[nH]c1=O (stereo not drawn)	-7.5
CC(=O)c1cccc(NS(=O)(=O)c2cc(-c3cnc(C4CC4)o3)ccc2C)c1	15.5
CCOC(=O)C1=C(C)n2c(s/c(=C3\C(=O)Nc4ccccc43)c2=O)=NC1c1ccc(OC)cc1 (stereo not drawn)	7.77
C=CCNc1nc(SC)nc2ccsc12	-0.806
CN(C)NC(=O)c1ccc([N+](=O)[O-])s1	16.8
CCCNC(=O)c1ccccc1NC(=O)c1ccc2c(c1)NC(=O)C(C)S2 (stereo not drawn)	-10.9
